Read-outs that look alike come from different tables or passages of the source.
Key:
[1] = target: full-length CaMKIIα wild type (Ca2+/calmodulin-dependent protein kinase II α) holoenzyme (rat) (UniProt P11275); assay: negative-stain single particle EM; purified CaMKIIα (~100 nM) in 50 mM HEPES pH 7.4, 120 mM KCl, 0.5 mM EGTA on carbon grids, uranyl formate stain; reference-free and focused 2D classification, tilted-series 3D reconstruction at ~20 Å with D6 symmetry; general features also seen in vitrified specimens
[2] = target: full-length CaMKIIα wild type (Ca2+/calmodulin-dependent protein kinase II α) holoenzyme (rat) (UniProt P11275); assay: as above; remark: listed apart in the source

stoichiometry N [1]: 14
stoichiometry N [2]: 12
Substance: full-length CaMKIIα wild type (Ca2+/calmodulin-dependent protein kinase II α) holoenzyme (a stretch of the chain, sequence left out) (enzyme; other documents disagree on this pair)

Reference: publication PMC5467236
